# From ChEMBL document CHEMBL4888484, “Replenishing the malaria drug discovery pipeline: Screening and hit evaluation of the MMV Hit Generation Library 1 (HGL1) against asexual blood stage Plasmodium falciparum ,using a nano luciferase reporter read-out” (2022)
# In all, about 150,000 compounds went through this assay and about 540 (0.36%) showed an effect of 50% or more. This is one part of the list.
# Test system: Plasmodium falciparum
# Test: Primary screen in NF54 nanoGlo assay, in single point, at 2uM, 72h; a lower Z score goes with more inhibition
# Type: functional, Erythrocyte
# Details: timepoint 72 hour
SMILES,% Inhibition [%],Z score
O=C1COC(=O)N1C1CN(C(=O)C2(c3ccccc3)CCOCC2)C1,-3,0.57
Cc1csc([C@@H](C)CNc2nc(C)cnc2C)n1,-3,0.57
c1[nH]nc2c1CCC[C@@H]2OCCC1OCCO1,-3,0.45
Cc1cccc2c1CC(C(=O)N[C@H]1[C@@H]3CN(C(=O)CCn4cccn4)C[C@@H]31)O2 (stereo partly specified),-5,0.81
NC(=O)c1cc(N2CCC[C@H](F)C2)ccn1,-2,0.4
CCCc1cc(C(=O)N2CC(c3ccccn3)C2)cs1,-19,3.64
COC(=O)[C@]1(F)CCN(C(=O)c2[nH]nc3c2CCCC3)C1,1,-0.13
CCc1cc(C)c(C(=O)N2CCC[C@H]2C(C)(C)O)o1,-7,0.71
COc1cccc(CN2CCNC(=O)[C@@H]2CC(=O)N2CCCCCCC2)c1OC,-18,1.95
Cc1ccc(F)cc1-c1nnc(NS(=O)(=O)c2ccsc2)o1,-8,1.05
COc1ccc(OCC(=O)Nc2cnc(-c3cccc(Cl)c3)nc2)cc1,-34,2.96
Cc1sc2ccccc2c1S(=O)(=O)NCc1ccccn1,-7,0.96
Oc1cnc(-c2nc(C3CCOCC3)nn2C2Cc3ccccc3C2)cn1,-11,2.24
O=C(NCCc1nnc2ccc(N3CCCCCC3)nn12)c1ccccc1,6,-0.79
O=C(NC1CCN(c2cc3c(nn2)CCCC3)CC1)c1cccnc1,-16,2.73
CC(=O)Nc1nc(N2CCC(C(=O)NCc3cc(F)cc(F)c3)CC2)sc1C(=O)N1CCCC1,-14,1.33
CCn1nc(C)c(C(=O)N[C@H]2C[C@@H](c3nnc(CN(C)C)n3C)C2)c1C,-7,1.29
COc1cc(NC(C)=O)c(Cl)cc1C(=O)Nc1nnc(CCCOc2ccccc2)s1,-2,0.32
CCN(C(=O)C1CCN(C(C)=O)CC1)C1CCCCC1,3,-0.47
CCn1ncc2[nH]c(-c3ccc(OC)nc3)nc21,-8,1.07
CN(C)C(=O)N1CCN(c2ncnc3c2Cc2ccccc2OC3)CC1,-1,0.23

SMILES,% Inhibition [%],Z score
Cc1ccn(CC(=O)N2CC[C@@]3(CCCN(Cc4cccc(F)c4F)C3)C2)n1,-16,1.45
CCC(CC)CN1CCCn2nc(CNC(=O)N(C)C)cc2C1,-26,2.51
COC(CN1CC(O)CC1CO)c1ccc(Cl)cc1 (stereo unspecified),3,-0.34
Cc1cc(C)nc(O[C@H]2CCCN(S(=O)(=O)C3CCCCC3)C2)n1,6,-0.81
O=C(c1ccncc1Cl)N1CCCC12CCCCC2,-19,1.57
Cc1oc(-c2ccc3ccccc3c2)nc1CN1[C@@H]2CC[C@H]1CNC2,-10,1.19
CCn1c(CN(Cc2ccc(OC)cc2)C2CC2)nc2cc(S(=O)(=O)N3CCCCC3)ccc21,-10,1.41
COCCOCc1nc([C@H]2CCN(S(=O)(=O)c3cc(C)ccc3C)C2)no1,-20,3.85
CCCn1c(=O)c2sc(N3CCCC3)nc2n(CC(=O)NC(C)C)c1=O,-7,0.64
Cc1ccc(O)c(CNc2ccc3c(c2)OCC3(C)C)n1,39,-4.45
CCc1ncnc(NCC2CCCC2O)c1F (stereo unspecified),8,-1.22
Cc1nc[nH]c1CN1C[C@H]2CC[C@@H](C1)N(C(=O)NCc1ccccc1F)C2,-4,0.59
CNC(=O)c1ccc(-c2ccc(C(=O)N3CCC(F)(F)CC3)cc2)o1,-7,1.09
Cc1cccc(N2C(=O)C3C(c4ccccc4)CCC(c4ccccc4)C3C2=O)c1C (stereo unspecified),-11,1.22
O=S(=O)(c1ccc(-c2nc3ccccc3s2)cc1)N1CCCCCC1,-14,1.96
CCc1oc2ccccc2c1CC(=O)N1CCOC[C@H]1c1c(C)nn(C)c1C,-10,2.07
COc1cc2c(cc1OC)CN(C(=O)CN1c3ccccc3C(C(N)=O)CC1C)CC2 (stereo unspecified),-9,1.05
OCC1(O)CCN(Cc2ccc(C3CCCCC3)s2)CC1,8,-1.74
CC(C)OCCCNc1ncc(C#N)c(NCCCOC(C)C)n1,12,-2.29
CC[C@H]1CC[C@@H](C)N(C(=O)c2ccc3ncccc3c2)C1,-11,1.28
CN1CCC(C(=O)C(C#N)c2nc(-c3ccccc3)cs2)CC1=O (stereo unspecified),9,-1.67

SMILES,% Inhibition [%],Z score
CC(=O)c1cccc(CN2CCN(Cc3cc(C)cc(C)c3)C(=O)C2)c1,-4,0.77
O=C(C[C@@H]1C=CCC1)NC(C1CC1)C1CC1,27,-3.09
CC(C)Cc1nc(CNC(=O)c2coc(C3CC3)n2)no1,-4,0.62
COCCN(CCOc1ccccc1F)C(=O)c1nc2ncccn2n1,-9,1.71
COc1cccc(Cn2c(C)c(C3CCN(S(=O)(=O)c4cccc(C)c4)CC3)c3ccccc32)c1,-8,1.13
CN(C)c1ccc(CN2CCC[C@H](C(F)(F)F)C2)cn1,9,-1.11
C[C@@H](Cc1ccccn1)NC(=O)c1ccc2nc(-c3ccc(F)cc3)cn2c1,-11,1.1
Cc1cccc(CNC(=O)c2ccc(-n3c(C)cc4c3CC[C@H](C)C4)cc2)c1,-4,0.51
C#CCOC[C@@H](O)CN(Cc1cccc(C)c1)C(C)C,0,0.03
O=C(CCn1cncn1)N1CCOC[C@@H]1CC1CCOCC1,-11,1.16
Cc1nc(C)n(C[C@H]2CCCCN2CCn2cccn2)n1,1,-0.1
CC(C)n1ccnc1-c1cccc(C(=O)NCCc2ccco2)c1,-10,1.92
c1cnn(CCCNc2nc(C3CC3)nc3c2CCC3)c1,-15,1.59
CN(CCCn1cccn1)Cc1cccc(-c2nc3c(c(=O)[nH]2)CCCC3)c1,2,-0.27
O=C1C[C@H](c2nc(-c3ccc(-c4csc(C5CC5)n4)cc3)no2)CN1c1ccccc1,-14,1.46
CC(C)(C)[C@H]1CCc2c(sc(NC(=O)c3cc4nc(-c5ccc6c(c5)OCO6)cc(C(F)(F)F)n4n3)c2C#N)C1,-2,0.22
Nn1c(-c2ccc(COc3ccccc3Br)cc2)nc2ccccc2c1=O,-1,0.15
F[C@H]1CCCC[C@@H]1NCc1csnn1,-9,1.32
CCCCNCc1ccc(Br)cc1,10,-1.23
CC(C)(C)c1nc2ccccn2c1-c1ccc(C(=O)N2CCOCC2)cc1,-17,2.48
COC(=O)CCC(=O)Nc1nc(C)sc1-c1ccccc1,12,-1.78

SMILES,% Inhibition [%],Z score
CC(=O)N1CCN(C(=O)C2=C(C)NC(=O)N[C@H]2CCc2ccccc2)CC1,-9,1.1
CCCc1noc([C@H](C)N(C)Cc2nc3ccccc3s2)n1,-13,1.76
CN(CCn1ccnc1)c1cc(C2CC2)ncn1,17,-2.05
CC(C)(C)n1cc(Cn2ccc(=O)c3cccc(OC(F)(F)F)c32)nn1,-9,1.14
CCC(C(=O)O)N1CCCC(CN2CCN(c3ccccn3)CC2)C1 (stereo unspecified),-9,0.87
O=c1[nH]nc(Cc2ccncc2)n1CC1CCCCC1,-11,2.16
CC(=O)N[C@@H](Cc1c[nH]cn1)c1nc(CC(N)=O)nn1C1CCCCC1,-11,1.34
CC(C)(C(=O)N1CC(CCO)C1)[C@H](O)c1cc(Cl)cc(Cl)c1,5,-0.56
Cc1ccc(CC(=O)N2CCN(c3nc4c(s3)c(C)nn4-c3ccc(F)cc3)CC2)cc1,-15,1.64
Cn1cc(-c2ccccc2)c(NC(=O)N2CC[C@H]2C2CC2)n1,-12,2.11
COc1ccccc1CNC(=O)C1CCN(c2nc3ccc(Cl)cc3[nH]2)CC1,-5,0.85
CC(C)CCN(C(=O)CN(C)S(C)(=O)=O)C1CCCC1,-11,1.13
Cc1cc(-c2ncccc2NC(=O)N(CCO)CC(F)F)cs1,3,-0.51
C#CCCC1(CCC(=O)N(C)C[C@H]2CCCOC2)N=N1,-12,1.53
Cc1cccc(S(=O)(=O)[C@H](C#N)c2nc3ccccc3nc2N2CCN(Cc3ccccc3)CC2)c1,-3,0.35
C[C@H]1[C@@H]2[C@@H](O)[C@H]([C@H](C)C(=O)N3CCOCC3)CC[C@@]2(C)CC[C@@H]1NC(=O)c1ccccn1,-8,1.08
O=C(Nc1ccc(F)c(S(=O)(=O)Nc2cccc(C(F)(F)F)c2)c1)c1cc2ccccc2o1,-8,1.43
CCN1CCN(C2CN(C(=O)c3c(C)[nH]c4ccccc34)C2)CC1,-18,3.61
Cc1ccccc1-n1c(=O)n(C2CCCC2)c(=O)c2c1ncn2Cc1cccc(F)c1,-9,1.15
CN1CCCN(C(=O)CCc2ncc(-c3ccc(Cl)cc3Cl)o2)c2nc3ccccc3nc21,-13,1.26
